From PubChem BioAssay AID1745853 (National Center for Advancing Translational Sciences (NCATS), 2022)
Some of the results follow. These are further read-outs of the screen, such as a control signal, another cell line or another target. No call is given for them.

Key:
Experiment in all cases: Primary Screen for Target Class Profiling of Small Molecule Inhibitors of Methyltransferases
[1] = target: Glycine N-methyltransferase (Homo sapiens) (UniProt Q14749); details: purified enzyme, MTase-Glo SAH luminescence; measured here: GNMT inhibition; at 40 µM; stronger effect = lower value
In short: (§1)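 Each enzyme was reacted with SAM and its substrate, with compounds tested once at 40 uM; SAH formed was read by MTase-Glo luminescence.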

[2] = target: Guanidinoacetate N-methyltransferase (Homo sapiens) (UniProt Q14353); details: purified enzyme, MTase-Glo SAH luminescence; measured here: GAMT inhibition; at 40 µM; stronger effect = lower value
In short: as §1

[3] = target: Histamine N-methyltransferase (Homo sapiens) (UniProt P50135); details: purified enzyme, MTase-Glo SAH luminescence; measured here: HNMT inhibition; at 40 µM; stronger effect = lower value
In short: as §1

[4] = target: Nicotinamide N-methyltransferase (Homo sapiens) (UniProt P40261); details: purified enzyme, MTase-Glo SAH luminescence; measured here: NNMT inhibition; at 40 µM; stronger effect = lower value
In short: as §1

[5] = target: Phenylethanolamine N-methyltransferase (Homo sapiens) (UniProt P11086); details: purified enzyme, MTase-Glo SAH luminescence; measured here: PNMT inhibition; at 40 µM; stronger effect = lower value
In short: as §1
On the % scale 0 is the no-effect control and ±100 the full control effect.

| SMILES | activity change, negative = inhibition [1] [%] | activity change, negative = inhibition [2] [%] | activity change, negative = inhibition [3] [%] | activity change, negative = inhibition [4] [%] | activity change, negative = inhibition [5] [%] |
| --- | --- | --- | --- | --- | --- |
| COc1ccc(NC(=O)CCc2nnc3n(Cc4ccccc4Cl)c(=O)c4ccccc4n23)cc1OC | -1.94 | -1.77 | -10.3 | -5.41 | -12.3 |
| O=C(Nc1cccc(Cl)c1)N1CC(n2cc(COc3ccccc3)nn2)C1 | -8 | -5.92 | -5.03 | -12.6 | -0.69 |
| C#Cc1cccc(Nc2ncnc3cc(OCCOC)c(OCCOC)cc23)c1 | -30.3 | -24.3 | -31.1 | -19.7 | -22.4 |
| CC1(C(=O)NC2CCCCCC2)Cn2c(cc3occc32)C(=O)N1Cc1ccccn1 (stereo unspecified) | -3.94 | 2.41 | -1.55 | -4.4 | -4.33 |
| C[C@@H](NS(=O)(=O)c1ccc(Cl)cc1)c1onc(-c2ccc(F)cc2)c1C(=O)O | -4.52 | -0.286 | -1.47 | -3.73 | -0.421 |
| O=C(Nc1ccc(F)cc1)c1ccc2cc[nH]c2n1 | -7.91 | -5.1 | -4.13 | -33.8 | -10.6 |
| COc1ccc(Cn2ccc3ccc(C(=O)NO)cc32)cc1 | -4.89 | -4.98 | 9.39 | -13.8 | 0.47 |
| Cc1ccccc1N1CCN(S(=O)(=O)C[C@]23CCC(CC2NC(=O)[C@@H](N)CCS(C)(=O)=O)C3(C)C)CC1 (stereo partly specified) |  | 9.94 |  | -0.027 | 7.95 |
| CC1(C(=O)NC2CCCC2)Cn2c(cc3ccccc32)C(=O)N1C1CCCCCC1 (stereo unspecified) | 5.53 | 0 | 4.52 | 4.93 | -1.21 |
| C=CC(C)(O)C(O)CC1C(C)(O)C(O)C(O)C2C(C)(C)CCCC21C (stereo unspecified) | -1.63 | -6.22 | 2.79 | -13.3 | -1.12 |
| COc1ccc(NC(=O)N2C[C@@H]3C[C@H](C2)c2ccc(NC(=O)c4ccccn4)c(=O)n2C3)cc1 | -8.97 | -10.4 | -5.12 | -21.6 | -12.4 |
| COC(=O)c1cc2n(n1)CC(C)(C(=O)NC1CCCCCC1)N(Cc1ccc(OC)cc1OC)C2=O (stereo unspecified) | 2.04 | 0 | -5.78 | -23.1 | 2.24 |
| CN(C)c1ccc(CCc2nc(C3CCOC3)no2)cc1 (stereo unspecified) | -9.28 | -5.75 | -2.4 | -5.77 | 0.13 |
| Nc1ccc(-c2ccnc(NCCCNC(=O)c3c(Cl)cccc3Cl)n2)cc1 |  | -11 |  | -33.1 | -13.2 |
| CC1CCCCC1NC(=O)C1(C)Cn2c(nc3ccccc32)C(=O)N1Cc1cccc(Cl)c1 (stereo unspecified) | 1.28 | 4.21 | 5.31 | 3.66 | 0.291 |
| O=C(CCn1ccc2cc(S(=O)(=O)N3CCCCC3)ccc21)NCc1ccc(Cl)cc1 | 2.27 | 0 | 5.78 | -1.53 | 1.54 |
| O=C(c1ccc(C(F)(F)F)cc1)N1CCC2(CC1)CNc1ccccc1[S+](=O)([O-])N2 | -3.39 | -3.54 | -0.98 | -4.2 | -2.87 |
| CC(=O)OC1C(C)C2C(OC3OC(CO)C(O)C(O)C3O)OC=C(C(=O)O)C2C1OC(=O)c1ccccc1 (stereo unspecified) | 0 | 2.85 | 2.7 | -11 | 4.71 |
| Cc1cccc(CSc2nnc3n(CCCOC(C)C)c(=O)c4cc(Cl)ccc4n23)c1 | -0.886 | 1.67 | 5.64 | -6.68 | 3.95 |
